This passage reports AUC and IC50 results from the supplement of paper PMC4967469.

Lines with a small IC50 respond at low doses; a fit beyond the top or the lowest dose is shown as a bound at that dose. The AUC spans the tested range (256-fold, ending at the top dose) of the same fit; values near 1 show little effect. The top dose, if marked as inferred, comes from the curve model; the source does not state it.

Compound in the test: O=C1NC(=O)/C(=C\c2ccc3nccnc3c2)S1 [AS605240]
Description: Viability of human cancer cell lines after 72 h of drug (GDSC screen). The following applies: top dose inferred. How it is done:
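Human cancer cell lines in 384-well plates, medium with 10% serum, drug for 72 h over a 256-fold dose range (nine 2-fold or five 4-fold steps up to the top dose). Adherent lines were fixed and stained with the nucleic acid dye Syto60, suspension lines read with resazurin; signal relative to control wells, capped at 0 and 100%. One two-parameter sigmoid per drug and line, fitted in a mixed model over all curves with the slope shared within a line.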
For the cell line “COR-L23 (large cell lung carcinoma, adherent, top dose 20 µM)”, the AUC is 0.826 and the IC50 (in general, the midpoint of a concentration-inhibition curve) was found to be 11.7 µM.

As for “COR-L88 (small cell lung carcinoma, adherent, top dose 20 µM)”, the AUC stood at 0.982 and the IC50 is above 20 µM.

Consider “COR-L95 (small cell lung carcinoma, adherent, top dose 20 µM)”, for which the AUC was 0.977 and the IC50 was above 20 µM.

As to “COR-L105 (lung adenocarcinoma, adherent, top dose 20 µM)”, the AUC was 0.666 and the IC50 amounted to 4.03 µM.

Turning to “COR-L279 (small cell lung carcinoma, suspension, top dose 20 µM)”, the AUC came to 0.975 and the IC50 is above 20 µM.

With “COR-L303 (small cell lung carcinoma, suspension, top dose 20 µM)”, the AUC came to 0.814 and the IC50 came out at 10.4 µM.

Take “COR-L311 (small cell lung carcinoma, suspension, top dose 20 µM)”: the AUC was 0.89 and the IC50 was above 20 µM.

With “COR-L321 (lung, suspension, top dose 20 µM)”, the AUC was determined as 0.791 and the IC50 was 8.95 µM.

On to “CP50-MEL-B (melanoma, adherent, top dose 20 µM)”, for which the AUC came out at 0.606 and the IC50 was found to be 2.43 µM.

Take “CP66-MEL (melanoma, adherent, top dose 20 µM)”: the AUC worked out at 0.523 and the 50% inhibitory concentration (IC50) was determined as 1.46 µM.

In the case of “CPC-N (small cell lung carcinoma, suspension, top dose 20 µM)”, the AUC came to 0.975 and the IC50 is above 20 µM.

As to CS1 (bone, adherent, top dose 20 µM), the AUC came to 0.866 and the IC50 is above 20 µM.

Consider “CTB-1 (B-cell lymphoma, suspension, top dose 20 µM)”, for which the AUC was determined as 0.686 and the IC50 amounted to 5.07 µM.

With “CTV-1 (acute myeloid leukaemia, suspension, top dose 20 µM)”, the AUC was determined as 0.92 and the IC50 was above 20 µM.

With “CW-2 (large intestine, adherent, top dose 20 µM)”, the AUC turned out to be 0.987 and the IC50 is above 20 µM.

As to “Ca9-22 (head and neck, adherent, top dose 20 µM)”, the AUC amounted to 0.85 and the IC50 was 13.5 µM.

“Ca-Ski (cervix, adherent, top dose 20 µM)”: the AUC came out at 0.746 and the concentration for half-maximal inhibition (IC50) worked out at 6.99 µM.

As to “CaR-1 (large intestine, adherent, top dose 20 µM)”, the AUC came out at 0.892 and the IC50 is above 20 µM.

With “Calu-3 (lung adenocarcinoma, adherent, top dose 20 µM)”, the AUC was 0.827 and the IC50 was 16.7 µM.

In the case of “Calu-6 (lung adenocarcinoma, adherent, top dose 20 µM)”, the AUC was determined as 0.96 and the IC50 was above 20 µM.

For “Caov-3 (ovary, adherent, top dose 20 µM)”, the AUC was 0.873 and the IC50 was determined as 15.3 µM.

In the case of “Caov-4 (ovary, adherent, top dose 20 µM)”, the AUC was determined as 0.554 and the IC50 was determined as 1.88 µM.

Take “Capan-2 (pancreas, adherent, top dose 20 µM)”: the AUC is 0.984 and the IC50 was above 20 µM.

As for “ChaGo-K-1 (non-small cell lung carcinoma, adherent, top dose 20 µM)”, the AUC was 0.914 and the IC50 was above 20 µM.

With “D-247MG (glioma, adherent, top dose 20 µM)”, the AUC is 0.957 and the IC50 is above 20 µM.

In the case of “D-263MG (glioma, adherent, top dose 20 µM)”, the AUC is 0.913 and the IC50 was above 20 µM.

Turning to “D-283MED (medulloblastoma, adherent, top dose 20 µM)”, the AUC was 0.979 and the IC50 is above 20 µM.

Regarding “D-336MG (glioma, adherent, top dose 20 µM)”, the AUC worked out at 0.912 and the IC50 was above 20 µM.

Turning to “D-392MG (glioma, adherent, top dose 20 µM)”, the AUC is 0.879 and the IC50 was above 20 µM.

In the case of “D-423MG (glioma, adherent, top dose 20 µM)”, the AUC worked out at 0.697 and the IC50 is 5.09 µM.

Take “D-502MG (glioma, adherent, top dose 20 µM)”: the AUC was 0.868 and the IC50 was above 20 µM.

Regarding “D-542MG (glioma, adherent, top dose 20 µM)”, the AUC is 0.906 and the IC50 was above 20 µM.

“D-566MG (glioma, adherent, top dose 20 µM)”: the AUC worked out at 0.711 and the IC50 is 4.9 µM.

On to “DAN-G (pancreas, adherent, top dose 20 µM)”, for which the AUC turned out to be 0.901 and the IC50 is above 20 µM.

As to “DB (B-cell lymphoma, suspension, top dose 20 µM)”, the AUC came out at 0.922 and the IC50 is above 20 µM.

In the case of “DBTRG-05MG (glioma, adherent, top dose 20 µM)”, the AUC came to 0.79 and the IC50 came out at 10.7 µM.

As for “DEL (lymphoid neoplasm, suspension, top dose 20 µM)”, the AUC worked out at 0.912 and the IC50 was 18 µM.

On to “DG-75 (Burkitt lymphoma, suspension, top dose 20 µM)”, for which the AUC is 0.933 and the IC50 was above 20 µM.

Take DJM-1 (skin, adherent, top dose 20 µM): the AUC worked out at 0.836 and the IC50 came out at 13.1 µM.

As for “DK-MG (glioma, adherent, top dose 20 µM)”, the AUC came out at 0.838 and the IC50 was above 20 µM.

In the case of “DMS-53 (small cell lung carcinoma, adherent, top dose 20 µM)”, the AUC came out at 0.966 and the IC50 was above 20 µM.

For “DMS-79 (small cell lung carcinoma, suspension, top dose 20 µM)”, the AUC is 0.949 and the IC50 was above 20 µM.

With “DMS-114 (small cell lung carcinoma, adherent, top dose 20 µM)”, the AUC was 0.94 and the IC50 is above 20 µM.

As for “DMS-273 (small cell lung carcinoma, adherent, top dose 20 µM)”, the AUC was found to be 0.979 and the IC50 is above 20 µM.

As for “DND-41 (T-cell leukaemia, suspension, top dose 20 µM)”, the AUC was 0.591 and the IC50 worked out at 2.15 µM.

Consider “DOK (head and neck, adherent, top dose 20 µM)”, for which the AUC was 0.685 and the IC50 was determined as 5.4 µM.

In the case of DOV13 (ovary, adherent, top dose 20 µM), the AUC was found to be 0.954 and the IC50 was above 20 µM.

In the case of “DSH1 (bladder, adherent, top dose 20 µM)”, the AUC was found to be 0.982 and the IC50 was above 20 µM.

“DU-145 (prostate, adherent, top dose 20 µM)”: the AUC is 0.984 and the IC50 is above 20 µM.

Regarding “DU-4475 (breast, suspension, top dose 20 µM)”, the AUC is 0.015 and the IC50 is below 0.0781 µM.

Consider “Daoy (medulloblastoma, adherent, top dose 20 µM)”, for which the AUC stood at 0.868 and the IC50 worked out at 15.4 µM.

In the case of “Daudi (Burkitt lymphoma, suspension, top dose 20 µM)”, the AUC was determined as 0.891 and the IC50 came out at 18.1 µM.

Consider “Detroit562 (head and neck, adherent, top dose 20 µM)”, for which the AUC is 0.895 and the IC50 is above 20 µM.

Consider “DoTc2-4510 (cervix, adherent, top dose 20 µM)”, for which the AUC worked out at 0.875 and the IC50 is 17.9 µM.

As to “EB2 (Burkitt lymphoma, suspension, top dose 20 µM)”, the AUC is 0.641 and the IC50 came to 2.95 µM.

For the cell line “EB-3 (Burkitt lymphoma, suspension, top dose 20 µM)”, the AUC is 0.866 and the IC50 is above 20 µM.

Turning to “EBC-1 (lung squamous cell carcinoma, adherent, top dose 20 µM)”, the AUC came out at 0.824 and the IC50 turned out to be 14 µM.

On to “EC-GI-10 (oesophagus, adherent, top dose 20 µM)”, for which the AUC stood at 0.983 and the IC50 is above 20 µM.

“ECC10 (stomach, suspension, top dose 20 µM)”: the AUC came out at 0.929 and the IC50 is above 20 µM.

Turning to “EFM-19 (breast, adherent, top dose 20 µM)”, the AUC stood at 0.806 and the IC50 was found to be 17.5 µM.

In the case of “EFM-192A (breast, adherent, top dose 20 µM)”, the AUC turned out to be 0.922 and the IC50 is above 20 µM.

Consider “EFO-21 (ovary, adherent, top dose 20 µM)”, for which the AUC came out at 0.952 and the IC50 is above 20 µM.

As to “EFO-27 (ovary, adherent, top dose 20 µM)”, the AUC stood at 0.852 and the IC50 is above 20 µM.

Regarding “EGI-1 (biliary tract, adherent, top dose 20 µM)”, the AUC is 0.66 and the IC50 turned out to be 4.01 µM.

“EJM (lymphoid neoplasm, semi-adherent, top dose 20 µM)”: the AUC is 0.838 and the IC50 worked out at 10.6 µM.

As to “EKVX (lung adenocarcinoma, adherent, top dose 20 µM)”, the AUC is 0.925 and the IC50 is above 20 µM.

In the case of “EM-2 (chronic myeloid leukaemia, suspension, top dose 20 µM)”, the AUC was 0.707 and the IC50 amounted to 5.21 µM.
